Measurements reported in the supplement of paper PMC5641865, “A screen for kinase inhibitors identifies antimicrobial imidazopyridine aminofurazans as specific inhibitors of the Listeria monocytogenes PASTA kinase PrkA” (The Journal of Biological Chemistry, 2017).
± gives the standard deviation of the averaged measurements. Only a part is listed here, and it is no random draw.

The compounds below were run on Listeria monocytogenes 10403S (assay: growth inhibition relative to ceftriaxone-alone control; higher = stronger potentiation of ceftriaxone growth inhibition). Settings: 10 µM; ceftriaxone 1 ug/ml; 12 h.
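Also: End-point A600 read in BHI broth at 37 °C with 2% DMSO, inhibition computed as (1 − OD with compound plus ceftriaxone ÷ OD with ceftriaxone only) × 100.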

Compared with Fc1ccc(-c2ncn(C3CCNCC3)c2-c2ccnc(Oc3cccc(C(F)(F)F)c3)n2)cc1, Fc1ccc(-c2ncn(C3CCNCC3)c2-c2ccnc(Oc3cccc(F)c3)n2)cc1 is higher in growth inhibition: -9.81 ± 3.7% for the first, -2.82 ± 2.1% for the second.

Compared with O=C1NC(=O)C(c2ccccc2Cl)=C1Nc1cc(Cl)c(O)c(Cl)c1, O=C1NC(=O)C(c2cccc([N+](=O)[O-])c2)=C1Nc1cc(Cl)c(O)c(Cl)c1 is higher in growth inhibition: -10.2 ± 13% for the first, 49.2 ± 4.5% for the second.

CS(=O)(=O)c1ccc(Oc2nccc(-c3c(-c4ccc(F)cc4)ncn3C3CCNCC3)n2)cc1 and Fc1ccc(Oc2nccc(-c3c(-c4ccc(F)cc4)ncn3C3CCNCC3)n2)cc1 are within error of each other in growth inhibition: 10.1 ± 24% for the first, -3.17 ± 1.3% for the second.

O=C(O)c1ccc(Oc2nccc(-c3c(-c4ccc(F)cc4)ncn3C3CCNCC3)n2)cc1 and Fc1ccc(-c2ncn(C3CCNCC3)c2-c2ccnc(Oc3ccc(Cl)cc3)n2)cc1 are within error of each other in growth inhibition: -5.82 ± 12% for the first, -4.09 ± 4.8% for the second.

Cc1cccc(Oc2nccc(-c3c(-c4ccc(F)cc4)ncn3C3CCNCC3)n2)c1C and COc1ccccc1Oc1nccc(-c2c(-c3ccc(F)cc3)ncn2C2CCNCC2)n1 are within error of each other in growth inhibition: -10.9 ± 15% for the first, -5.45 ± 3.6% for the second.

NC(=O)CCc1ccccc1Oc1nccc(-c2c(-c3ccc(F)cc3)ncn2C2CCNCC2)n1 and CC(C)(C)c1ccc(Oc2nccc(-c3c(-c4ccc(F)cc4)ncn3C3CCNCC3)n2)cc1 are within error of each other in growth inhibition: -10.9 ± 16% for the first, -5.44 ± 11% for the second.

COc1ccccc1C1=C(Nc2ccccc2)C(=O)NC1=O and O=C1NC(=O)C(c2ccccc2)=C1Nc1ccccc1 are within error of each other in growth inhibition: -1.59 ± 0.35% for the first, 3.12 ± 5.5% for the second.

Cc1ccccc1-n1c(Cn2nc(-c3cccc(O)c3)c3c(N)ncnc32)nc2cccc(C)c2c1=O showed a growth inhibition of 18 ± 12%.
